PubChem BioAssay AID1347430 (National Center for Advancing Translational Sciences (NCATS), 2020)
Screen size: about 91,000 compounds; about 130 (0.14%) were called active. This list was built around the results that the source calls inconclusive (neither active nor inactive); the mix of calls is not that of the screen. Calls follow the shape of the dose curve; as a rule, active = well fitted inhibition curve with a large enough effect; inconclusive = small, poorly fitted or top-dose-only effect; inactive = flat fitted curve, though single readings scatter. A potency beside an inconclusive call is a rough fit, not a confirmed value.

Test system: Uracil-DNA glycosylase
Test: Primary qHTS assay for inhibitors of Activation Induced Cytidine Deaminase (AID): UDG Counterscreen signal; also: nearly all actives have a fitted effect of over 65% in size
Conditions: FRET deamination/UDG coupled assay, UDG read, 4 h; activity change, negative = inhibition: at 115 µM (top of the series)
% is scaled to controls: 0 for no effect and ±100 for the full control effect; potency is read from the fitted curve at half-maximal effect; tags tell the direction and shape of the fitted curve.

| SMILES | activity change, negative = inhibition | Potency |
| --- | --- | --- |
| O=C(COC(=O)c1cc(=O)c2ccccc2o1)NC1CC1 | inactive: 9.4% |  |
| O=C(Nc1cc(F)ccc1F)c1ccc2ccccc2n1 | inactive: -2.09% |  |
| Cc1cccc(N2CCN(c3nc4ccccc4c4nc(-c5cccnc5)nn34)CC2)c1C |  | inconclusive: 79.4 µM [inhibitor, partial curve] |
| O=C(NC1CCCCCC1)C(Cc1ccccc1)NS(=O)(=O)c1ccc(Br)s1 (stereo not given) | inactive: -8.17% |  |
| Cc1ccc(C)c(N2CCN(S(=O)(=O)c3csc(C(N)=O)c3)CC2)c1 |  | inconclusive: 89.1 µM [inhibitor, single point] |
| CCS(=O)(=O)N1CCc2cc(C(=O)Nc3ccc(OC)cc3OC)ccc21 |  | inconclusive: 89.1 µM [inhibitor, single point] |
| CC(=O)c1cccc(NC(=O)c2nc(-c3ccccc3)n(-c3cccc(C)c3)n2)c1 |  | inconclusive: 79.4 µM [inhibitor, partial curve, poor fit] |
| Cc1ccc(Nc2sc(C(=O)c3ccccc3)c(N)c2S(=O)(=O)c2ccccc2)c(C)c1 |  | inconclusive: 70.8 µM [inhibitor, single point] |
| O=C(Cn1cc(S(=O)(=O)Cc2ccccc2F)c2ccccc21)NCc1ccccc1Cl |  | inconclusive: 89.1 µM [inhibitor, single point] |
| Cc1ccc(C)c(OCc2ccc(-c3nc(C#N)c(N(C)C)o3)o2)c1 |  | inconclusive: 89.1 µM [inhibitor, single point] |
| COc1ccc2[nH]cc(CCNC(=O)c3cnn(-c4ccccc4Cl)c3C3CCN(C(=O)OC(C)(C)C)CC3)c2c1 |  | inconclusive: 50.1 µM [inhibitor, partial curve, poor fit] |
| Cc1ccc(OCC(=O)Nc2cc(-c3cccc(C)c3)nn2-c2ccccc2)cc1 |  | inconclusive: 89.1 µM [inhibitor, single point] |
| Cc1cc(NC(=O)CSc2nnc3c(Cl)cc(C(F)(F)F)cn23)no1 | inactive: 0.358% |  |
| CC(C)CC(C(=O)NCCc1ccccc1)N1Cc2ccccc2C1=O (stereo not given) |  | inconclusive: 89.1 µM [inhibitor, single point] |
| Cc1nn(C(C)(C)C)c(OC(=O)c2cccc(F)c2)c1Sc1ccccc1 |  | inconclusive: 79.4 µM [inhibitor, single point] |
| COc1ccc(/C=C/C(=O)c2cccs2)cc1O | inactive: -14.9% |  |
| CC1CCN(S(=O)(=O)c2ccc3nc(Nc4cccc(C(F)(F)F)c4)ccc3c2)CC1 |  | inconclusive: 22.4 µM [inhibitor, partial curve, poor fit] |
| COc1ccc(C2=C(C)C(=O)N(Cc3ccc(C(=O)Nc4ccc(C)c(C)c4)cc3)S2(=O)=O)cc1 |  | inconclusive: 100 µM [inhibitor, single point] |
| Cc1ccc(-c2nn3c(=O)cc(CN4CCN(S(=O)(=O)c5ccc(Cl)cc5)CC4)nc3s2)cc1 |  | inconclusive: 89.1 µM [inhibitor, single point] |
| O=C(NCc1ccc(F)cc1)C1(c2cccs2)CCOCC1 |  | inconclusive: 89.1 µM [inhibitor, single point] |
| NC(=S)NCc1ccc(F)cc1 | inactive: -0.964% |  |
| CCOC(=O)c1c(NC(=O)C2c3ccccc3Oc3ccccc32)sc(C)c1CC |  | inconclusive: 79.4 µM [inhibitor, partial curve, poor fit] |

| SMILES | activity change, negative = inhibition | Potency |
| --- | --- | --- |
| COC(=O)c1ccccc1NC(=O)N1CCC(N2CCN(Cc3ccc(F)cc3)C(=O)C2=O)CC1 |  | inconclusive: 89.1 µM [inhibitor, single point] |
| CSc1ccc(-c2nc3cccc(C)n3c2Nc2ccc(Cl)cc2)cc1 |  | inconclusive: 89.1 µM [inhibitor, partial curve, poor fit] |
| Cc1ccc(Cn2cnc3nc4c(cc3c2=O)CC(C)CC4)cc1 (stereo not given) |  | inconclusive: 89.1 µM [inhibitor, single point] |
| Cc1ccc(Nc2c(C(C)C)c(C)c(C#N)c3nc4ccccc4n23)cc1 |  | inconclusive: 3.55 µM [inhibitor, partial curve, poor fit] |
| CC1=C(C(=O)Nc2ccc(C)cc2C)C(c2ccc(Br)cc2)NC(=O)N1 (stereo not given) | inactive: -7.98% |  |
| Cc1ccccc1-c1noc(-c2ccc(NCc3ccco3)c([N+](=O)[O-])c2)n1 |  | inconclusive: 89.1 µM [inhibitor, single point] |
| C#CCNC(=O)C(CCSC)NC(=O)c1ccc2ccccc2n1 (stereo not given) | inactive: 3.57% |  |
| CCCCNc1nc2ccccc2c2nc(-c3ccccc3)nn12 |  | inconclusive: 100 µM [inhibitor, single point] |
| CCN(CC(=O)NC(C)(C)C)C(=O)Cn1c(=O)c2c(ncn2C)n(C)c1=O | inactive: 1.04% |  |
| Cc1oc(-c2ccc(Cl)cc2)nc1CN1CCCC(C(=O)NCc2ccccc2)C1 (stereo not given) |  | active: 89.1 µM |
| CCc1ccc(OCCn2c(C3CC(=O)N(Cc4ccc(F)cc4)C3)nc3ccccc32)cc1 (stereo not given) |  | inconclusive: 79.4 µM [inhibitor, partial curve, poor fit] |
| CC(C)CCn1c(/C=C/c2ccccc2)nc2ccccc21 |  | inconclusive: 100 µM [inhibitor, single point] |
| COc1ccc(NC(=O)c2ccco2)cc1NC(=O)c1cc(OC)c(OC)c(OC)c1 |  | inconclusive: 79.4 µM [inhibitor, partial curve, poor fit] |
| COc1cc(OC)c(N(C)C(=O)c2c(C)oc3ncn(CC(C)C)c(=O)c23)cc1Cl |  | inconclusive: 89.1 µM [inhibitor, single point] |
| Cc1c(-c2ccccc2)nc2c(Cl)cccc2c1C(=O)OCC(=O)c1ccc(F)cc1 |  | inconclusive: 100 µM [inhibitor, single point] |
| O=C(C1CCN(S(=O)(=O)c2ccc(Br)s2)CC1)N1CCN(c2cccc(C(F)(F)F)c2)CC1 |  | inconclusive: 2.82 µM [inhibitor, full curve, poor fit] |
| COc1cc(/C=C(/C#N)C(=O)Nc2ccccc2C(F)(F)F)ccc1OCc1ccc(F)cc1 | inactive: 2.19% |  |
| S=C(NCc1ccccc1)N/N=C/c1cccc(OCCOc2ccc(Br)cc2)c1 | inactive: -5.8% |  |
| COc1cc(Nc2ncc3c(n2)CCN(Cc2cccc(C)c2)C3)cc(OC)c1 |  | inconclusive: 50.1 µM [inhibitor, partial curve] |
| O=C(CSc1nc(=O)n(Cc2ccncc2)c2c1CCC2)Nc1ccc(F)cc1F |  | inconclusive: 89.1 µM [inhibitor, single point] |
| O=C(NC1(C(F)(F)F)N=C(c2ccccc2)N(Cc2ccco2)C1=O)c1ccccc1 (stereo not given) |  | inconclusive: 89.1 µM [inhibitor, single point] |
| CCOc1cc(CNC(=O)c2ccc3nc(C(C)C)oc3c2)cc(OCC)c1OCC |  | inconclusive: 79.4 µM [inhibitor, single point] |

| SMILES | activity change, negative = inhibition | Potency |
| --- | --- | --- |
| CCCCN(CC)C(=O)c1nn(-c2ccc(OC)cc2)c(=O)c2c1c1ccccc1n2C |  | inconclusive: 17.8 µM [inhibitor, partial curve, poor fit] |
| Cc1ccc(Cl)cc1N1CCN(C(=O)CSc2cc(=O)n(C)c3ccccc23)CC1 |  | inconclusive: 89.1 µM [inhibitor, partial curve, poor fit] |
| Cc1ccc(/C=C/C(=O)c2c(C)nc3ccc(Br)cc3c2-c2ccccc2)o1 | inactive: -8.87% |  |
| COc1cccc(NC(=O)CN(CCc2ccccc2)S(=O)(=O)c2ccc(Cl)cc2)c1 |  | inconclusive: 79.4 µM [inhibitor, single point] |
| COc1ccccc1N1CCN(C(=O)c2c(C)oc3ncn(C)c(=O)c23)CC1 |  | inconclusive: 100 µM [inhibitor, partial curve, poor fit] |
| COC(=O)c1cc(-c2ccc(F)cc2)nc2onc(-c3ccccc3)c12 | inactive: -2.98% |  |
| COc1ccc(-c2csc(=Nc3ccccc3)n2CCO)cc1F |  | inconclusive: 89.1 µM [inhibitor, single point] |
| CC1=C(C(=O)OC(C)(C)C)C(c2cccc(Cl)c2)NC(=O)N1 (stereo not given) | inactive: -4.37% |  |
| Cc1c(Cl)cccc1NC(=O)CCS(=O)(=O)c1ccc2c(c1)CC(=O)N2C |  | inconclusive: 79.4 µM [inhibitor, partial curve] |
| Fc1ccccc1N1CCN(c2nc3ccccc3c3nc(-c4ccccc4)nn23)CC1 |  | inconclusive: 89.1 µM [inhibitor, single point] |
| Cc1ccn2c(=O)cc(COc3cccc(NC(=O)Nc4cccc(Cl)c4C)c3)nc2c1 |  | inconclusive: 89.1 µM [inhibitor, single point] |
| COC(=O)COc1ccc2c(c1)OCC2=O |  | inconclusive: 44.7 µM [inhibitor, partial curve, poor fit] |
| CCOC(=O)c1c(NC(=O)CCCOc2ccc(C)cc2)sc2c1CCC(C)C2 (stereo not given) |  | inconclusive: 100 µM [inhibitor, single point] |
| Cc1nn(-c2ccc3nnc(C)n3n2)c2c1C(c1cccc(OC(C)C)c1)CC(=O)N2 (stereo not given) | inactive: 10.9% |  |
| COc1cc(C(=O)/C=C/c2ccc(SC)cc2)ccc1O | inactive: 0.33% |  |
| CCOc1ccccc1NC(=O)C(=O)c1cc(C)n(-c2cccc(C)c2C)c1C |  | inconclusive: 44.7 µM [inhibitor, full curve, poor fit] |
| CCCOc1cc(C)c(S(=O)(=O)Nc2cccnc2)cc1C | inactive: 4.13% |  |
| CC(=O)N1CCN(c2oc(/C=C/c3ccc(F)cc3)nc2C#N)CC1 | inactive: 0% |  |
| Cn1nc(-c2ccc(N3CCOCC3)c(NC(=O)COc3ccccc3)c2)c2ccccc2c1=O |  | active: 89.1 µM |
| CCn1nc(C)c2c(-c3ccccc3)cc(=O)n(C(C)C(=O)Nc3cccc(F)c3)c21 (stereo not given) |  | inconclusive: 70.8 µM [inhibitor, partial curve, poor fit] |
| OCCc1cnccn1 | inactive: -6.2% |  |
